Source: article PMC4336329 (PLoS ONE, 2015)
About 14,000 (4.5%) of roughly 310,000 compounds showed an effect of 50% or more. Effects have a minus sign here. Some of the results follow.

Biological target: human ether-à-go-go-related gene (hERG) potassium channel (human, UniProt Q12809)
Experiment: primary screen, population patch clamp on CHO cells stably expressing hERG
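Also: peak tail current of the secondary pulse compared with the same well before compound.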

Sequence of human ether-à-go-go-related gene (hERG) potassium channel (Q12809 whole entry, looked up): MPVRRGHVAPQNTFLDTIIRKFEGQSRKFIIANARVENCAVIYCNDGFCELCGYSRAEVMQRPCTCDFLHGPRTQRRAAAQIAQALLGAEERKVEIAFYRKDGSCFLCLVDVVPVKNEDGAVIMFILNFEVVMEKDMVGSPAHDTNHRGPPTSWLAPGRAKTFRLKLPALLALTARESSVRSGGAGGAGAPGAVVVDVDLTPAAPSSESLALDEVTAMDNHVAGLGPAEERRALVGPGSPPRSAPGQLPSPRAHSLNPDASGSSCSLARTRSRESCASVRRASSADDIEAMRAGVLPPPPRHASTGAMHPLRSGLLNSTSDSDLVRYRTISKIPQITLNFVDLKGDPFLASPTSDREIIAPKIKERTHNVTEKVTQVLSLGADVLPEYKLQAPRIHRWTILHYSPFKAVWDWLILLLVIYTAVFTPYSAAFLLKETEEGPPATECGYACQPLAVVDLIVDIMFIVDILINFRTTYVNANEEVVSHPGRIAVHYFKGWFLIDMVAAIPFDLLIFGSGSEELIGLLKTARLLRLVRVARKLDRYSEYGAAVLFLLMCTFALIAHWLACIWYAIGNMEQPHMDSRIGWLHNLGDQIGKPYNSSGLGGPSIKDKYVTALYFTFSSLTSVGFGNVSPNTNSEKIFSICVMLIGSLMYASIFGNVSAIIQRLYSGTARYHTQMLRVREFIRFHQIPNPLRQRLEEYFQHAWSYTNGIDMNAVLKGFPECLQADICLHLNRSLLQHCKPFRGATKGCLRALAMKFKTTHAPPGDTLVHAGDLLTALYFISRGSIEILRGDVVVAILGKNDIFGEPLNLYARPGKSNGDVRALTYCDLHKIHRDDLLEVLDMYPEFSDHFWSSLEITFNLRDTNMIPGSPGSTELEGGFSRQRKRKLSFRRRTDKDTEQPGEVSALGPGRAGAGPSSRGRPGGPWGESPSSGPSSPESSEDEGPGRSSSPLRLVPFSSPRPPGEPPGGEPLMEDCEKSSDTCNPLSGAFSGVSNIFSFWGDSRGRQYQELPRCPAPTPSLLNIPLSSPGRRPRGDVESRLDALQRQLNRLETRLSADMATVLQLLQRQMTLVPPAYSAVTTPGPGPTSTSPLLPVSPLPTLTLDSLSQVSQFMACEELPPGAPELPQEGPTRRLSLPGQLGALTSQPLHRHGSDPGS

Row | Structure (SMILES) | hERG current change (%, negative = inhibition) at 10uM
1 | CCc1nc2c(sc3nc4c(cc32)COC(C)(C)C4)c(=O)n1Cc1ccco1 | -16%
2 | Fc1ccc(N2CCN(C(c3cccs3)c3nnnn3CCc3ccccc3)CC2)cc1 (stereo not drawn) | 3.96%
3 | COc1ccc(CCN2C(=NC(=O)CCC(=O)O)SC3CS(=O)(=O)CC32)cc1 (stereo not drawn) | -4.44%
4 | CCn1c(SCc2nc3scc(-c4ccccc4)c3c(=O)[nH]2)nnc1-c1ccc(Cl)cc1 | -3.18%
5 | Cc1ccc(CSc2nc3ccccc3c(=O)n2Cc2ccco2)cc1 | 8.42%
6 | O=C(CN1C(=O)CSC1=O)NCc1ccccc1 | 2.82%
7 | CC(CN1CCOCC1)OC(=O)c1cccc(Br)c1.Cl (stereo not drawn) | -5.73%
8 | Cc1cc(SCC(=O)N/N=C/c2ccc(O)c(O)c2)nc2ccccc12 | 7.6%
9 | Cc1cc(=O)[nH]c2c1c(C)nn2C1CCOC(C)(C)C1 (stereo not drawn) | 9.96%
10 | Cc1ccccc1NC(=S)N(Cc1cccs1)C1CCCCC1 | 17.3%
11 | CC1(C)CC(=O)C(C(C2=C(O)CC(C)(C)CC2=O)c2ccc(O)c([N+](=O)[O-])c2)=C(O)C1 | -1.33%
12 | Cc1ccc(CNC(=O)CCSCc2ccccc2C)cc1 | 6.59%
13 | CCCN(CC(=O)Nc1ccccc1C)C(=O)c1ccc(S(=O)(=O)N2CCCCCC2)cc1 | -45.2%
14 | CCc1ccc(OCc2nnc(SCC(=O)NCc3ccco3)o2)cc1 | -55.2%
15 | CCCC1(C(=O)OC)NC(c2cccc(F)c2)C2C(=O)N(CC)C(=O)C21 (stereo not drawn) | -6.76%
16 | Cc1nc(SCC(=O)N(C)C2(C#N)CCCCC2)c2ccccc2n1 | -14.2%
17 | C[C@@H]1O[C@@H](O[C@@H]2C=C3CCC4C(CC[C@]5(C)[C@@H](c6ccc(=O)oc6)CC[C@]45O)[C@@]3(C)CC2)[C@H](O)[C@H](O)[C@H]1O (stereo partly drawn) | 17.4%
18 | COc1ccccc1OCCn1cc(C(=O)c2ccco2)c2ccccc21 | 7.74%
19 | CCOc1ccc(C2C(C#N)=C(N)SC(N)=C2C#N)cc1OC | 0.708%
20 | Cc1cccc2cc(CN(Cc3ccccc3)C(=O)N(C)C)c(=O)[nH]c12 | -11.5%
21 | Cc1c2cnn(CC(=O)NCCCN3CCCCC3C)c(=O)c2c(C)n1Cc1ccccc1 (stereo not drawn) | 11.1%

Row | Structure (SMILES) | hERG current change (%, negative = inhibition) at 10uM
22 | O=C(NC1CCCC1)C(c1ccncc1)N(Cc1ccccc1F)C(=O)c1csnn1 (stereo not drawn) | 8.22%
23 | COc1ccc(NC(=O)CCNC(=O)N2CC(=O)Nc3ccccc32)c(OC)c1 | 17.8%
24 | Cc1ccccc1NC(=O)c1sc2nc3c(c(-c4ccco4)c2c1N)CCCC3 | -10.6%
25 | CN(Cc1ccc(F)cc1)S(=O)(=O)c1nnc(NC(=O)c2ccccc2)s1 | 4.03%
26 | COc1ccc(NC(=O)CCNS(=O)(=O)c2ccccc2F)cc1S(N)(=O)=O | 22.1%
27 | N/C(=N\OC(=O)c1cc(Br)ccc1Cl)c1cccnc1 | 13.6%
28 | COc1cc(OC)cc(OC(=O)C2CCN(C3=NS(=O)(=O)c4ccccc43)CC2)c1 | 15.2%
29 | COc1ccc(CNC(=O)c2ccc3ccccc3n2)cc1 | 2.83%
30 | CCCN1CCN(C(=O)c2ccc(CS(=O)c3ccc(F)cc3)o2)CC1 (stereo not drawn) | -14.8%
31 | CCCCN(C(=O)CCC(=O)Nc1cc(C)on1)C(C(=O)NC(C)(C)C)c1ccccc1Cl (stereo not drawn) | 3.59%
32 | COc1ccc(OC)c(-n2c(C)ccc2-c2ccc(S(C)(=O)=O)cc2)c1 | -10.5%
33 | O=S1(=O)N=C(N(CCO)/N=C/C=C/c2ccccc2)c2ccccc21 | -41.6%
34 | COc1cc(NC(=O)c2c3c(nc4ccccc24)CCC3)cc(OC)c1 | 11.3%
35 | CC(C)OP(=O)(OC(C)C)C(O)c1ccc2c(c1)OCO2 (stereo not drawn) | 23.2%
36 | CN(CC(=O)c1c(N)n(C)c(=O)n(C)c1=O)c1ccccc1 | 3.37%
37 | CCCCCn1c(=O)[nH]c2cc(C(=O)N3CCN(c4ccccc4F)CC3)ccc2c1=O | 16.8%
38 | COC(=O)c1c(N)sc(C(=O)N2CCOCC2)c1C | 6.03%
39 | CCc1cccc(CC)c1NC(=O)C1CC(=O)N(c2ccc3c(c2)OCCO3)C1 (stereo not drawn) | 0.437%
40 | COc1ccccc1/C=C1\SC(=S)N(C(C(=O)O)c2ccccc2)C1=O (stereo not drawn) | -7.69%
41 | O=[N+]([O-])c1ccc(S(=O)(=O)Nc2ccc(-c3ccc(N4CCOCC4)nn3)cc2)cc1 | -7.79%
42 | O=C(Cn1cccc1C(=O)c1ccccc1)NCCc1ccccc1 | 16.3%
